Measurements as given in article PMC4336329 (PLoS ONE, 2015).
The whole screen tested about 310,000 compounds, of which about 2,200 (0.71%) showed an effect of 50% or more. Effects have a minus sign here. This is one part of the list.

Target: human ether-à-go-go-related gene (hERG) potassium channel (human, UniProt Q12809)
Experiment: primary screen, population patch clamp on CHO cells stably expressing hERG

Chain of human ether-à-go-go-related gene (hERG) potassium channel (Q12809 whole entry, looked up): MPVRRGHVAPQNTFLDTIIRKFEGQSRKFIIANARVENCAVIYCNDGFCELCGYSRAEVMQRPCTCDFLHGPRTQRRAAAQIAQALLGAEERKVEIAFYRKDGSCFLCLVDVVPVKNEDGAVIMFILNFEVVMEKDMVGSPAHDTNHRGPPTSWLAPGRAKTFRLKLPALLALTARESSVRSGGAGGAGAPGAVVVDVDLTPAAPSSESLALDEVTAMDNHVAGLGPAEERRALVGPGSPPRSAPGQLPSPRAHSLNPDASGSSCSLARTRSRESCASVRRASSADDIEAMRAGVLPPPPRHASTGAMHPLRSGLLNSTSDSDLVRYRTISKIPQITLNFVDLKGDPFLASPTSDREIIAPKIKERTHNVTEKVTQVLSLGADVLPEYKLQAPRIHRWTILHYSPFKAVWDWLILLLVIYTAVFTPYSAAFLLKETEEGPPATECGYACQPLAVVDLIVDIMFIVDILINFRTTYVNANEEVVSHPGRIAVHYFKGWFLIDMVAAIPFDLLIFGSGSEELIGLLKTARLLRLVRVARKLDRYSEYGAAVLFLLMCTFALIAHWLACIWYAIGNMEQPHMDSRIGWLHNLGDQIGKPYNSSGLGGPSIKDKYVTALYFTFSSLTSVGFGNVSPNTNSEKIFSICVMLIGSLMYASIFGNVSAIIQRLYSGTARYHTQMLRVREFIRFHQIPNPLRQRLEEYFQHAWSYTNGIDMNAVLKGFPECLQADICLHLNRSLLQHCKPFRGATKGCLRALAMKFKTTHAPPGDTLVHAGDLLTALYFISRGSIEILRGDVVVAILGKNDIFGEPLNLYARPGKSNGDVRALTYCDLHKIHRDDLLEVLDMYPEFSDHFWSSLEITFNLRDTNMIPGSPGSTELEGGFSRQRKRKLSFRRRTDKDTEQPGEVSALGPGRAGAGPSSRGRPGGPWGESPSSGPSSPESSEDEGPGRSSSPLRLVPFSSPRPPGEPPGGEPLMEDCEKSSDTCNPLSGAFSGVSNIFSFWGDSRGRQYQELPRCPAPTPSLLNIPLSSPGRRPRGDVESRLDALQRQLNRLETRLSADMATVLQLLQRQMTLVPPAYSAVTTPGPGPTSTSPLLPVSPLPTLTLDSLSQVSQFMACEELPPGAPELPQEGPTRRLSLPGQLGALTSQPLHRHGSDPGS

Structure (SMILES) | hERG current change (%, negative = inhibition) at 1uM [%]
S=C(Nc1cc(Cl)cc(Cl)c1)N1CCN(c2ccccn2)CC1 | 17.4
c1cncc(CNc2nc(N3CCOCC3)nc(N3CCOCC3)n2)c1 | 2.65
CCn1c2ccc(F)cc2c2nc3ccccc3nc21 | 10.2
CCC1(c2ccccc2)NC(=O)N(CC(=O)N(C)Cc2ccccc2)C1=O (stereo not shown) | 14.8
COC(=O)c1cc2n(n1)CCN(Cc1ccccc1Cl)C2=O | 0.155
COc1ccccc1NC(=O)c1ccc(COc2ccccc2Br)o1 | 13.8
Cc1noc(C)c1C(=O)N1CCC(C(=O)c2ccc(F)cc2F)CC1 | 16.8
CCn1c2ccccc2c2cc(NC(=O)c3ccccc3[N+](=O)[O-])ccc21 | 14.1
CC1CCN(S(=O)(=O)c2ccc3nc(N4CCN(c5ccccc5)CC4)ccc3c2)CC1 | 14.1
COc1ccc(Cc2nnc(NC(=O)c3ccccc3F)s2)cc1OC | 8.9
CCOc1ccc(S(=O)(=O)NCc2cccnc2)cc1C(C)C | 18.5
Cc1ccc(S(=O)(=O)N[C@H](C(=O)OCC(=O)NC(=O)Nc2ccc3c(c2)OCCO3)C(C)C)cc1 | 14.4
CCN(CC)S(=O)(=O)c1ccc(Cl)c(OC)c1 | 7.58
COc1ccc(CNC(=O)C(=O)NCC2OCCN2S(=O)(=O)c2ccc(OC)c(OC)c2)cc1 (stereo not shown) | 7.81
CCCCSc1nc2c(cnn2-c2ccc(Cl)cc2)c(=O)[nH]1 | -0.955
COC(=O)c1c(-c2cccnc2)csc1NC(=O)c1cc(C)on1 | 17.5
Cc1cc(C)cc(CSCC(=O)NN=C2CCCCCC2)c1 | 10.4
CC(=O)NS(=O)(=O)c1ccc(NS(=O)(=O)c2ccccc2[N+](=O)[O-])cc1 | 11
Cc1ccc(NC(=S)N(Cc2ccc(Br)cc2)Cc2ccc(C(=O)O)cc2)cc1C | 4.73
C=CCn1cc(C(=O)NCc2cccnc2)c(=O)c2cc(S(=O)(=O)N(CC)CC)ccc21 | -46.9
O=[N+]([O-])c1ccc2nc(SCc3ccccc3Cl)sc2c1 | 1.98
CCCC(=O)c1c(C)c2ccccc2n1C | 11.5

Structure (SMILES) | hERG current change (%, negative = inhibition) at 1uM [%]
CCn1c(Cc2cccc3ccccc23)nnc1SCC(=O)Nc1nccs1 | 7.05
Cc1ccc(NC(=O)Cn2cccc2)c(C)c1 | 1.56
Cc1ccc(Cl)cc1NC(=O)C1CC1c1ccccc1 (stereo not shown) | 18.2
O=C1Nc2ccccc2O/C1=C\c1ccccc1Br | 0.525
CCC(CC)C1=NN2C(=N)/C(=C/c3ccc(OC(=O)c4ccco4)cc3)C(=O)N=C2S1 | 17.3
CCCCC(CC)CNC(=O)c1[nH]c(C)c(C(C)=O)c1C (stereo not shown) | -1.93
CC(C)(C)NC(=O)NC(=O)COC(=O)c1c(F)cccc1Cl | 10.9
CC(C)CCNC(=S)Nc1ccc(F)cc1 | 8.98
O=C(COC(=O)c1ccc(Br)cc1)NCc1ccc(F)cc1 | -2.07
CC1CN(C(=O)C(c2ccccc2)c2ccccc2)CC(C)O1 (stereo not shown) | 11.2
CC1Cc2ccccc2N1Cc1cc(=O)c(OCC(=O)NCCc2ccccc2)co1 (stereo not shown) | 16.7
COc1ccccc1C(=O)NNC(=O)CCN1C(=O)/C(=C\c2ccccc2)SC1=S | 24.6
CCNC(=S)N1N=C2c3ccccc3CCC2C1c1ccc(F)cc1 (stereo not shown) | 10.5
O=C(NCCc1c[nH]c2ccccc12)C(=O)NCC1OCCCN1S(=O)(=O)c1cc(F)ccc1F (stereo not shown) | 13.6
COC(=O)C(c1cc(OC)c(O)c(OC)c1)(N1CCNC(C)C1)C(F)(F)F (stereo not shown) | 6.05
O=CN1CCN(C(=O)CC(c2ccccc2)c2cc(Br)ccc2O)CC1 (stereo not shown) | 2.44
CC(C)c1ccc(/C=C/C(=O)NC2=NCCS2)cc1 | 17
Cc1nnc(SCC(=O)Nc2ccc3c(c2)OCCO3)s1 | 8.1
CCOc1ccc(N(CC(=O)N2CCOCC2)S(=O)(=O)c2ccc(SC)cc2)cc1 | 11.1
Cc1ccc2[nH]c(=O)c(COC(=O)C3CCCO3)cc2c1 (stereo not shown) | 8.11
CCCCn1c(N)c(N(CC(C)C)C(=O)CN(C)S(=O)(=O)c2ccc(C)cc2)c(=O)[nH]c1=O | 4.31
CCNC(=O)CN(CCc1ccccc1)S(C)(=O)=O | 18.5

Structure (SMILES) | hERG current change (%, negative = inhibition) at 1uM [%]
O=C(CSc1nccn1-c1ccc(Cl)cc1)Nc1ccc2c(c1)OCO2 | -7.78
CC(=O)c1ccc(OCCCC(=O)OCc2nnc(-c3ccc(Cl)cc3)o2)cc1 | 4.87
Cc1cccc(NC(=S)NC2CC3CCCC(C2)N3Cc2cccs2)c1 (stereo not shown) | -5.94
CCCC(=O)NC1=C(C#N)C2(CCCCC2)Cc2ccccc21 | 9.37
O=C(Nc1cccc(-c2cnc3ccccc3n2)c1)C1CC(=O)N(c2ccccc2)C1 (stereo not shown) | 6.7
COc1ccc(S(=O)(=O)Nc2ccccc2C(F)(F)F)cc1 | 0.27
CCOC(=O)c1sc2ncc([N+](=O)[O-])cc2c1N | 7.79
Cc1ccc(C(C)C)c(Oc2cnccn2)c1 | 6.79
COc1ccc(CNC(=O)CCCn2nc(C)n3c(cc4sccc43)c2=O)cc1 | -7.76
Cc1cc(SCC(=O)NCCC2=CCCCC2)nc2ccccc12 | 3.55
Cc1occc1C(=O)N/N=C/c1ccc(-c2cccc([N+](=O)[O-])c2)o1 | 11.2
CC(C)CN(CC(C)C)S(=O)(=O)N1CCC(C(=O)NCc2ccc(F)cc2)CC1 | 13.6
Cc1ccc(C2=NOC(C)(c3nnc(-c4ccc(Cl)cc4)o3)C2)cc1 (stereo not shown) | 9.37
Cc1ccc(C)c(S(=O)(=O)NCc2ccc(C(=O)NCc3ccccn3)cc2)c1 | 8.81
O=C(NCCS(=O)(=O)N1CCN(c2ccccc2F)CC1)c1cccc(Br)c1 | 10
CCCS(=O)(=O)N1CCCC(c2nc(-c3ccc(OC)cc3)no2)C1 (stereo not shown) | 1.64
O=C(Cn1c2[n+](c3ccc(C(F)(F)F)cc31)CCCCC2)c1ccc2c(c1)OCCO2.[Cl-] | 7.8
NS(=O)(=O)c1ccc(CCNC(=O)c2ccc3c(c2)N(Cc2ccccc2)CCS3)cc1 | 10.2
CC(=O)Nc1cc(NC(=O)C2C3C=CC(C3)C2C(=O)O)ccc1Cl (stereo not shown) | 13.9
CN(C(=O)COC(=O)c1ccc(S(=O)(=O)N2CCCC2)cc1)c1ccccc1 | 2.35
CN(C(=O)c1ccc2c(c1)OCO2)C1(C(=O)NC2CCCCC2)CCCCC1 | 5.67
CC(C)(C)NC(=O)C1CC1(c1ccccc1)c1ccccc1 (stereo not shown) | 20.3

Structure (SMILES) | hERG current change (%, negative = inhibition) at 1uM [%]
Cc1nc(Br)c(Br)c(C)c1Br | 12.9
NS(=O)(=O)c1ccc(CCNC(=O)COC(=O)CCSc2ccc(Cl)cc2)cc1 | -2.4
O=C(COC(=O)Cc1ccc(Cl)cc1)Nc1cc(S(=O)(=O)N2CCOCC2)ccc1N1CCCC1 | 9.65
COc1ccc(N(C)S(=O)(=O)c2ccc3c(c2)NC(=O)CC(=O)N3)c(OC)c1 | 11.7
N#C/C(=C\c1cc([N+](=O)[O-])ccc1Cl)C(N)=O | 12
CN(C)CCNC(=O)c1cc(Sc2ccc(F)cc2)nc2ccccc12 | -15.7
CCCNC(=O)C(Cc1ccccc1)NC(=O)c1ccc(-c2ccccc2)cc1 (stereo not shown) | 0.371
CCOc1cc(CNCCSc2nnnn2C)cc(Br)c1OCc1ccc(F)cc1.Cl | 10.5
COc1ccc(NC(=O)CSc2nnc(C3CC3)n2N)cc1 | 5.82
O=C(Cc1ccc2c(c1)OCCO2)Nc1ccc(Cl)c(S(=O)(=O)N2CCOCC2)c1 | 3.77
O=C(NCc1cccs1)C1CCCN(S(=O)(=O)c2ccc3c(c2)OCO3)C1 (stereo not shown) | -7.74
Cc1ccc(-c2nc(CS(=O)CC(=O)N3CCN(c4ccc(F)cc4)CC3)c(C)o2)cc1 (stereo not shown) | 6.1
Cc1cccn2c(=O)c(/C=C(\C#N)C(=O)NC3CCS(=O)(=O)C3)c(N3CCC(C(N)=O)CC3)nc12 (stereo not shown) | 11.4
Cc1cc(Br)ccc1SCC(=O)OCC(=O)NCc1ccc2c(c1)OCO2 | 7.04
COc1cc(/C=N/NC(=O)C2CCN(CC(O)COCc3ccccc3)CC2)ccc1O (stereo not shown) | -63.6
CCN(CC)c1ccc(Nc2nc(-c3cccnc3)cs2)cc1 | 13.9
CCCn1c(CC)nc([N+](=O)[O-])c1Sc1ccc(C)cc1 | 8.74
Nc1ccc(C(CC(=O)O)n2cccc2)cc1 (stereo not shown) | 14.2
O=C(Cn1cncn1)c1ccccc1Br | 16.7
N#Cc1nc(-c2ccccc2F)oc1NCCN1CCOCC1 | 11.2
C=CCSc1nc2sc3c(c2c(=O)n1-c1ccc(C)cc1)CCN(C)C3 | 16.3
O=C(NCc1cccnc1)c1c[nH]c2cc3c(cc2c1=O)OCCO3 | 9.5
